Measured values from patent US20220380424A1 (CHONG KUN DANG PHARMACEUTICAL, published 2022).

T1: human Nodal protein (R&D systems, 3218-ND-025/CF) (human, UniProt Q96S42 238-347)
T1 construct: Bought protein
T1 sequence (looked up): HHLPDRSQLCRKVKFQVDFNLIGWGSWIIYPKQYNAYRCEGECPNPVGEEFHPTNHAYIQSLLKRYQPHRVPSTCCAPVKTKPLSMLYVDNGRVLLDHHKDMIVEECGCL

B1: CX201 (42 LFc variant with V63A, R66Q, G132R and a change at R135) (Fc fusion)
chain: LTEEQLLGSLLRQLQLSEVPVLDRADMEKLVIPAHVRAQYVALLQRSHGDRSGGKGFSQSFREVAGRFLASEASTHLLVFGMEQRLPPNSELVQAVLRLFQEPVPKAALHRHGGLSPRSAQARVTVEWLRVRDDGSNRTSLIDSRLVSVHESGWKAFDVTEAVNFWQQLSRPRQPLLLQVSVQREHLGPLASGAHKLVRFASQGAPAGLGEPQLELHTLDLRDYGAQGDCDPEAPMTEGTRCCRQEMYIDLQGMKWAKNWVLEPPGFLAYECVGTCQQPPEALAFNWPFLGPRQCIASETASLPMIVSIKEGGRTRPQVVSLPNMRVQKCSCASDGALVPRRLQPSGGGGSGGGGSGGGGS[no letters for human IgG1 Fc]
B2: 42 LFc (human Lefty A 42 kDa fragment L22 to P366 with R74G/R77G/R132G, fused at its C-terminus to human IgG1 Fc via the SGGGGSGGGGSGGGGS linker) (Fc fusion)
chain: B1 chain with A42V, Q45R, R111G, G114R
notes: Expressed in CHO-S cells and purified on Protein A; also called X-42; 42 LFc fusion protein
B3: CX197 (42 LFc with E24G, S38K, V42T, K50E, A55T, V63A, R66Q, G132R and R135A) (Fc fusion)
chain: B1 chain with E3G, S17K, V21T, K29E, A34T, G114A

Each binder was assayed against T1, human Nodal protein (R&D systems, …) (assay: SPR (BIAcore), human Nodal fixed on CM5 chip, fusion protein as analyte 31.25-500 nM, bivalent analyte model).
Experimental: (§1) The binding affinity between human Nodal protein and the human Lefty A fusion protein variant was measured using BIAcore.
(§2) Specifically, 50 RU of human Nodal (R&D systems, 3218-ND-025/CF) protein was fixed to a CM5 sensor chip. The human Lefty A fusion protein and their variants were diluted to concentrations of 500, 250, 125, 62.5 and 31.25 nM and injected sequentially from lower concentrations. Next, each dilution was associated by injection at a flow rate of 30 μl/min for 3 minutes and dissociated using running buffer for 5 minutes. The chip was regenerated using 15 μl of 50 mM NaOH. The association and dissociation rates for each cycle were evaluated using the “Bivalent analyte” model in BIAevaluation software version 4.1, and the BIAcore data are summarized in Table 14 below.

Row | Binder | Kd [nM]
1 | B1 | 124
2 | B2 | 72.9
3 | B3 | 534

What follows are binders tested against T1, human Nodal protein (R&D systems, …) (assay: SPR (BIAcore), human Nodal fixed on CM5 chip, fusion protein as analyte 31.25-500 nM, bivalent analyte model; second step).
Experimental: as §1, §2

Row | Binder | ka2 | kd2
4 | B1 | 0.00546 | 0.0341
5 | B2 | 0.00819 | 0.0446
6 | B3 | 0.000277 | 2.3e-05

Residue numbers refer to the chain shown, from its start. Names may count otherwise.
